# Results reported in the supplement of paper PMC12067230.
# Single values of this set are uncertain.
# Assay: amyloid nucleation score relative to library mode (yeast Sup35 reporter selection) (log enrichment difference); higher = more amyloid nucleation; sequences are the first 22 residues of the Bri2 peptide extended by up to 12 random residues
# Settings: random library (experiment): 1;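 active = nucleation score significantly above 0 at FDR 0.05; inactive = not significantly above 0 or absent from output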
# 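Further: [psi-pin-] Saccharomyces cerevisiae expressing SupN fusions, induced by 100 µM Cu2SO4, selected 7 d at 30 °C without adenine and uracil, scored by deep sequencing of output versus input.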
row,Sequence,amyloid nucleation score
1,EASNCFAIRHFENKFAVETLICMVEVDRKWRPRW,1.79
2,EASNCFAIRHFENKFAVETLICEIRRTYSRTWVS,-0.129
3,EASNCFAIRHFENKFAVETLICKSA,0.683
4,EASNCFAIRHFENKFAVETLICDWRCFTDYDSWR,3.96
5,EASNCFAIRHFENKFAVETLICDVAKGLCVVWRS,inactive
6,EASNCFAIRHFENKFAVETLICAPRRSCYRIALC,inactive
7,EASNCFAIRHFENKFAVETLICCVYA,7.12
8,EASNCFAIRHFENKFAVETLICVGAVWLLFNTCT,6.55
9,EASNCFAIRHFENKFAVETLICNVVFVTVNRVCA,inactive
10,EASNCFAIRHFENKFAVETLICWSDWWITVRMVN,inactive
11,EASNCFAIRHFENKFAVETLICASVCRVSSARRW,inactive
12,EASNCFAIRHFENKFAVETLICGGSKDL,inactive
13,EASNCFAIRHFENKFAVETLICTWHASKPRAYHL,inactive
14,EASNCFAIRHFENKFAVETLICQIWDTIL,inactive
15,EASNCFAIRHFENKFAVETLICYYGRGSVVGWKT,2.97
16,EASNCFAIRHFENKFAVETLICCLYSVELCKFRA,5.95
17,EASNCFAIRHFENKFAVETLICVWNRVI,inactive
18,EASNCFAIRHFENKFAVETLICFRLFRDRQQLLT,inactive
19,EASNCFAIRHFENKFAVETLICVQR,inactive

row,Sequence,amyloid nucleation score
1,EASNCFAIRHFENKFAVETLICDPIVRFCSNAML,0.936
2,EASNCFAIRHFENKFAVETLICFRMVLDRFNPHV,inactive
3,EASNCFAIRHFENKFAVETLICCCRVGVAIVW,0.372
4,EASNCFAIRHFENKFAVETLICLIVWTDKQAVRC,inactive
5,EASNCFAIRHFENKFAVETLICDAYHHWCRSTPT,3.29
6,EASNCFAIRHFENKFAVETLICDGPWTF,0.12
7,EASNCFAIRHFENKFAVETLICRSEAECCMGRPV,inactive
8,EASNCFAIRHFENKFAVETLICCR,-0.698
9,EASNCFAIRHFENKFAVETLICDGIRRRVVCGPW,-0.0755
10,EASNCFAIRHFENKFAVETLICALSLRAYVGLMQ,0.627
11,EASNCFAIRHFENKFAVETLICLFKNDLGGTGRR,6.82
12,EASNCFAIRHFENKFAVETLICVRWFC,5.92
13,EASNCFAIRHFENKFAVETLICNSSYGRAGSV,-0.0385
14,EASNCFAIRHFENKFAVETLICRFVTSPVIYKHC,inactive
15,EASNCFAIRHFENKFAVETLICAFVMFRFHCWYM,inactive
16,EASNCFAIRHFENKFAVETLICLRLFRCMWCNS,inactive
17,EASNCFAIRHFENKFAVETLICMLWFTRVLGTVL,inactive
18,EASNCFAIRHFENKFAVETLICGLRKVRMMSVPV,inactive
19,EASNCFAIRHFENKFAVETLICVPRSLMLSRSRA,inactive

row,Sequence,amyloid nucleation score
1,EASNCFAIRHFENKFAVETLICRGSVALLTRESL,0.413
2,EASNCFAIRHFENKFAVETLICLVVVQRSETWLR,inactive
3,EASNCFAIRHFENKFAVETLICFG,inactive
4,EASNCFAIRHFENKFAVETLICLMLRLMKAYRT,inactive
5,EASNCFAIRHFENKFAVETLICRENWGRVQKRTV,inactive
6,EASNCFAIRHFENKFAVETLICGMLVIGSGEAWT,7.13
7,EASNCFAIRHFENKFAVETLICHAVASGAFVKGV,3.17
8,EASNCFAIRHFENKFAVETLICHRDLI,0.348
9,EASNCFAIRHFENKFAVETLICTRVKDQAVLLLP,inactive
10,EASNCFAIRHFENKFAVETLICDRSNGHWPRSEQ,inactive
11,EASNCFAIRHFENKFAVETLICVLGVVFLDSKFW,inactive
12,EASNCFAIRHFENKFAVETLICLMSGMLGGKSLA,inactive
13,EASNCFAIRHFENKFAVETLICLYS,inactive
14,EASNCFAIRHFENKFAVETLICDVEICVIERRRN,inactive
15,EASNCFAIRHFENKFAVETLICHIGGEGSHRARL,3.37
16,EASNCFAIRHFENKFAVETLICVAAWE,inactive
17,EASNCFAIRHFENKFAVETLICRRRLTSLRARMQ,inactive
18,EASNCFAIRHFENKFAVETLICLYASLGGPEAWQ,7.79
19,EASNCFAIRHFENKFAVETLICGMGVYQICGKSM,inactive

# Same assay, conditions: random library (experiment): 2
row,Sequence,amyloid nucleation score
1,EASNCFAIRHFENKFAVETLICLLSVLWSTGNVY,inactive
2,EASNCFAIRHFENKFAVETLICIIMRGK,0.462
3,EASNCFAIRHFENKFAVETLICWFGHVNGVCQ,2.16
4,EASNCFAIRHFENKFAVETLICTMDSPSVIVVLH,inactive
5,EASNCFAIRHFENKFAVETLICMYKIIWCIKYDM,inactive
6,EASNCFAIRHFENKFAVETLICFHVCGKYGSVMW,3.51
7,EASNCFAIRHFENKFAVETLICYRLKSGVNQSLF,4.68
8,EASNCFAIRHFENKFAVETLICTHSSILVPILKR,inactive
9,EASNCFAIRHFENKFAVETLICYMSRPGSEPV,-0.231
10,EASNCFAIRHFENKFAVETLICVHYDVWMVYIGT,inactive
11,EASNCFAIRHFENKFAVETLICFRPITFNHTVRT,0.693
12,EASNCFAIRHFENKFAVETLICEDHNSNVRVVLV,inactive
13,EASNCFAIRHFENKFAVETLICCVWVSRFISIRE,2.45
14,EASNCFAIRHFENKFAVETLICCGMVGVSWSAIY,inactive
15,EASNCFAIRHFENKFAVETLICNVNGNFNTRLEP,8.26
16,EASNCFAIRHFENKFAVETLICFNQPCLILSCSI,5.13
17,EASNCFAIRHFENKFAVETLICALWCNVCYKCHC,6.11
18,EASNCFAIRHFENKFAVETLICCF,6.21
19,EASNCFAIRHFENKFAVETLICGSWVPGGRSLSS,5.51
20,EASNCFAIRHFENKFAVETLICVVVRESVLVLWC,inactive
21,EASNCFAIRHFENKFAVETLICHCLIWCSNRWFI,0.644

row,Sequence,amyloid nucleation score
1,EASNCFAIRHFENKFAVETLICYLKNDPMSMLRH,inactive
2,EASNCFAIRHFENKFAVETLICGDCFILCSMTWK,4.61
3,EASNCFAIRHFENKFAVETLICTVLTNHYRMR,-0.199
4,EASNCFAIRHFENKFAVETLICMAIEPVCLDMIR,4.32
5,EASNCFAIRHFENKFAVETLICLRHTSGMHYLGW,0.58
6,EASNCFAIRHFENKFAVETLICFRGNHNCSCGVN,1.6
7,EASNCFAIRHFENKFAVETLICETQTG,inactive
8,EASNCFAIRHFENKFAVETLICLVYRGQWMTGAG,inactive
9,EASNCFAIRHFENKFAVETLICRFHRSNMSGISK,inactive
10,EASNCFAIRHFENKFAVETLICYFGYANIVRYEN,0.673
11,EASNCFAIRHFENKFAVETLICVHVCVFWAAT,inactive
12,EASNCFAIRHFENKFAVETLICLCRKAESDRYGA,7.47
13,EASNCFAIRHFENKFAVETLICCAVHGLEPIGCQ,3.94
14,EASNCFAIRHFENKFAVETLICLLSHVHYYLLRG,inactive
15,EASNCFAIRHFENKFAVETLICCTKTSLFFYNNA,7.6
16,EASNCFAIRHFENKFAVETLICNFTYNGVRSFVR,5
17,EASNCFAIRHFENKFAVETLICLYMNSDFLGCRC,5.4
18,EASNCFAIRHFENKFAVETLICFVYDLMSGDSLV,inactive
19,EASNCFAIRHFENKFAVETLICVNVLIGNYGVYK,4.41
20,EASNCFAIRHFENKFAVETLICRCLLFLLFGWVY,inactive

# Same assay, conditions: random library (experiment): 3
row,Sequence,amyloid nucleation score
1,EASNCFAIRHFENKFAVETLICLHHYN,-0.253
2,EASNCFAIRHFENKFAVETLICMGMRLWVTLSSL,inactive
3,EASNCFAIRHFENKFAVETLICDCKNCVLRHPGG,8.43
4,EASNCFAIRHFENKFAVETLICLMGTWVLVEAVW,inactive
5,EASNCFAIRHFENKFAVETLICWSRSRFAVAVSR,inactive
6,EASNCFAIRHFENKFAVETLICVLPVQSSALSWM,8.2
7,EASNCFAIRHFENKFAVETLICRALQDRPDGVIR,1.03
8,EASNCFAIRHFENKFAVETLICTYVAFEG,inactive
9,EASNCFAIRHFENKFAVETLICNLEGRCS,inactive
10,EASNCFAIRHFENKFAVETLICVVMVTMRWCSMR,inactive
11,EASNCFAIRHFENKFAVETLICRQGGVLEACWKV,inactive
12,EASNCFAIRHFENKFAVETLICGYRD,inactive
13,EASNCFAIRHFENKFAVETLICLCERVEPYHASL,4.87
14,EASNCFAIRHFENKFAVETLICRLSDF,-0.0179
15,EASNCFAIRHFENKFAVETLICYRNCDEY,inactive
16,EASNCFAIRHFENKFAVETLICLSLVSWLNSKVR,inactive
17,EASNCFAIRHFENKFAVETLICRRMELIVRSGVG,inactive
18,EASNCFAIRHFENKFAVETLICYDFSGLNGPCML,4.11
19,EASNCFAIRHFENKFAVETLICQGRFCRCGVRF,inactive
20,EASNCFAIRHFENKFAVETLICGISCAA,0.52
21,EASNCFAIRHFENKFAVETLICHWIAHGWRSWRV,inactive
22,EASNCFAIRHFENKFAVETLICFTGGVRSLCVDC,4.08
